# Test results: the supplement of paper PMC10126150
# Values marked as one replicate rest on one cluster of the flow cell; about a third of the high ones do not repeat.
# Tested on: ATP
# Experiment: switch fluorescence ratio, 500 uM ATP over buffer (Cy3 cluster intensity, sum of 5 cycles each) (fold (ratio)); higher = stronger signal-on switching upon ATP binding; sequences stand for … in TCGTCGGCAGCGTCAGATGTGTATAAGAGACAGTTTTTTTTTTTTTTTTTTTTTTTTT…TC
# Details: aptamer strand: ATP DNA aptamer (quencher-CACCTGGGGGAGTATTGCGGAGGAAGG + anchor), 100 nM annealed; ATP concentration: 500 uM; one replicate
# Procedure, shortened: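 Per cluster, summed Cy3 intensity from the target cycles was divided by that from the buffer cycles to give the fluorescence ratio, then averaged per switch-domain sequence. Clusters outside 100-1000 RFU were excluded. The Cy3-labelled switching-strand clusters, on a modified Illumina MiSeq flow-cell, were annealed to 100 nM quencher-labelled ATP aptamer and imaged in selection buffer, then after 15 min with 500 uM ATP at 22 °C, for five cycles with NaOH stripping and re-annealing between them.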
# 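Note: ATP exposure 15 min at 22 °C before imaging.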
row,Sequence,switch fluorescence ratio
1,ATGCATGGCA,0.991
2,ATGCCACACT,1.04
3,ATGCCACTAG,1.02
4,ATGCCAGCAA,2.19
5,ATGCCAGCAC,1.05
6,ATGCCCGGTC,1.02
7,ATGCCGAAGA,0.98
8,ATGCCGGTCC,1.01
9,ATGCCGGTTT,1.04
10,ATGCCTCGCT,1.02
11,ATGCGCAACG,1.03
12,ATGCGCCTTA,1.01
13,ATGCGGAAC,1.09
14,ATGCGGAGGT,1.02
15,ATGCGTGCCC,1.02
16,ATGCGTGGGA,0.989
17,ATGCTAATCT,1.01
18,ATGCTACTGG,0.971
19,ATGCTAGTTT,0.935
20,ATGCTCTTCG,1.04
21,ATGCTGGTCA,0.957
22,ATGCTTACGG,1.05
23,ATGGAAAACG,1.01
24,ATGGAACCCC,1.13
25,ATGGACCTGG,0.924

row,Sequence,switch fluorescence ratio
1,ATGGAGACCA,1.04
2,ATGGAGCAGG,1.07
3,ATGGAGTTCA,1.02
4,ATGGCGAGTC,1.04
5,ATGGCGTAGA,1.04
6,ATGGCTGAAC,1.09
7,ATGGCTGTAA,0.972
8,ATGGCTGTAT,1.04
9,ATGGGACATG,1.06
10,ATGGGACGCA,1.03
11,ATGGGAGGT,0.993
12,ATGGGCACTG,1.01
13,ATGGGCTTGT,0.989
14,ATGGGGGCAA,1.04
15,ATGGGTAAAG,0.949
16,ATGGGTCAGA,1.05
17,ATGGGTTACA,0.975
18,ATGGTAATAG,1.03
19,ATGGTACATA,0.994
20,ATGGTAGTGA,0.996
21,ATGGTCAAGT,0.97
22,ATGGTCGGTA,0.923
23,ATGGTCTAGT,0.99
24,ATGGTGAGTG,1.12
25,ATGGTGGTAT,1

row,Sequence,switch fluorescence ratio
1,ATGGTGTTTG,1.02
2,ATGGTTAGTT,0.992
3,ATGGTTCGGA,0.962
4,ATGTAAAACG,0.956
5,ATGTAAACGG,1.04
6,ATGTAATGAC,1.02
7,ATGTAATTT,0.993
8,ATGTACTGGT,1.05
9,ATGTAGGACT,0.979
10,ATGTAGGATA,1.01
11,ATGTAGGTTC,0.993
12,ATGTAGGTTT,1.02
13,ATGTAGTACA,0.954
14,ATGTATAACT,0.984
15,ATGTATAGAT,0.973
16,ATGTATCCGC,1.25
17,ATGTATCTCG,0.944
18,ATGTCACTGG,1.07
19,ATGTCCATTT,0.996
20,ATGTCCCGTG,1.01
21,ATGTCCGTGT,0.993
22,ATGTCGCAGA,1.05
23,ATGTCGCCTA,1.03
24,ATGTCGTGTT,0.995
25,ATGTCTGCAC,1.14

row,Sequence,switch fluorescence ratio
1,ATGTGACCCA,1.01
2,ATGTGATGCG,0.945
3,ATGTGATTGA,0.984
4,ATGTGATTTA,1.01
5,ATGTGGACTT,1
6,ATGTGGTCAA,0.953
7,ATGTGTTCCA,0.985
8,ATGTGTTTAG,1
9,ATGTGTTTCT,0.994
10,ATGTTACTCG,1.04
11,ATGTTATCTG,0.929
12,ATGTTGTTAT,1.01
13,ATGTTTAGCG,0.935
14,ATGTTTGGCT,1.01
15,ATGTTTGTGC,0.963
16,ATGTTTTGCA,1
17,ATGTTTTTT,1.03
18,ATTAAACAAT,1.01
19,ATTAAATTAC,1.36
20,ATTAACCGGG,1.09
21,ATTAACTGC,1.02
22,ATTAACTTCT,1.01
23,ATTAAGGTCT,1
24,ATTAAGTCCG,0.965
25,ATTAATGAT,1.01
